The list shows a part of the results.
Experiments:
Assay in all cases: glycan array binding signal (z-score within array); higher = stronger binding
Conditions in all cases: glycan notation: IUPAC condensed, linker removed
[1] = biological target: Fuc(a1-2)[Gal(a1-3)]Gal(b1-4)GlcNAc(b1-2)Man(a1-3)[Fuc(a1-2)[Gal(a1-3)]Gal(b1-4)GlcNAc(b1-2)Man(a1-6)]Man(b1-4)GlcNAc(b1-4)[Fuc(a1-6)]GlcNAc
Outline: (§1)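 Negative Z-scores can be read as non-binding. The Z-score is calculated within each array and then averaged across arrays of one protein sequence at different concentrations or buffers and across linkers. Arrays, 3228 in all, were curated from the Consortium for Functional Glycomics database and kept only where the protein sequence was available.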

[2] = biological target: Fuc(a1-2)[Gal(a1-3)]Gal(b1-4)GlcNAc(b1-3)GalNAc
Outline: as §1

[3] = biological target: Fuc(a1-2)[Gal(a1-3)]Gal(b1-4)GlcNAc(b1-6)GalNAc
Outline: as §1

[4] = biological target: Fuc(a1-2)[Gal(a1-3)]Gal(b1-4)[Fuc(a1-3)]Glc
Outline: as §1

[5] = biological target: Fuc(a1-2)[Gal(a1-3)]Gal(b1-4)[Fuc(a1-3)]GlcNAc
Outline: as §1

[6] = biological target: Fuc(a1-2)[Gal(a1-3)]Gal(b1-4)[Fuc(a1-3)]GlcNAc(b1-3)GalNAc
Outline: as §1

[7] = biological target: Fuc(a1-2)[Gal(a1-4)]Gal(b1-4)GlcNAc
Outline: as §1

[8] = biological target: Fuc(a1-2)[GalNAc(a1-3)]Gal
Outline: as §1

[9] = biological target: Fuc(a1-2)[GalNAc(a1-3)]Gal(b1-3)GalNAc(a1-3)[Fuc(a1-2)]Gal(b1-4)GlcNAc
Outline: as §1

[10] = biological target: Fuc(a1-2)[GalNAc(a1-3)]Gal(b1-3)GalNAc(b1-3)Gal(a1-4)Gal(b1-4)Glc
Outline: as §1

[11] = biological target: Fuc(a1-2)[GalNAc(a1-3)]Gal(b1-3)GlcNAc
Outline: as §1

[12] = biological target: Fuc(a1-2)[GalNAc(a1-3)]Gal(b1-3)GlcNAc(b1-2)Man(a1-3)[Fuc(a1-2)[GalNAc(a1-3)]Gal(b1-3)GlcNAc(b1-2)Man(a1-6)]Man(b1-4)GlcNAc(b1-4)GlcNAc
Outline: as §1

[13] = biological target: Fuc(a1-2)[GalNAc(a1-3)]Gal(b1-3)GlcNAc(b1-2)Man(a1-3)[Fuc(a1-2)[GalNAc(a1-3)]Gal(b1-3)GlcNAc(b1-2)Man(a1-6)]Man(b1-4)GlcNAc(b1-4)[Fuc(a1-6)]GlcNAc
Outline: as §1

[14] = biological target: Fuc(a1-2)[GalNAc(a1-3)]Gal(b1-3)GlcNAc(b1-3)GalNAc
Outline: as §1

[15] = biological target: Fuc(a1-2)[GalNAc(a1-3)]Gal(b1-3)GlcNAc(b1-6)GalNAc
Outline: as §1

[16] = biological target: Fuc(a1-2)[GalNAc(a1-3)]Gal(b1-4)Glc
Outline: as §1

[17] = biological target: Fuc(a1-2)[GalNAc(a1-3)]Gal(b1-4)GlcNAc
Outline: as §1

[18] = biological target: Fuc(a1-2)[GalNAc(a1-3)]Gal(b1-4)GlcNAc(b1-2)Man
Outline: as §1

[19] = biological target: Fuc(a1-2)[GalNAc(a1-3)]Gal(b1-4)GlcNAc(b1-2)Man(a1-3)[Fuc(a1-2)[GalNAc(a1-3)]Gal(b1-4)GlcNAc(b1-2)Man(a1-6)]Man(b1-4)GlcNAc(b1-4)GlcNAc
Outline: as §1

[20] = biological target: Fuc(a1-2)[GalNAc(a1-3)]Gal(b1-4)GlcNAc(b1-2)Man(a1-3)[Fuc(a1-2)[GalNAc(a1-3)]Gal(b1-4)GlcNAc(b1-2)Man(a1-6)]Man(b1-4)GlcNAc(b1-4)[Fuc(a1-6)]GlcNAc
Outline: as §1

[21] = biological target: Fuc(a1-2)[GalNAc(a1-3)]Gal(b1-4)GlcNAc(b1-3)Gal(b1-4)GlcNAc
Outline: as §1

[22] = biological target: Fuc(a1-2)[GalNAc(a1-3)]Gal(b1-4)GlcNAc(b1-3)Gal(b1-4)GlcNAc(b1-3)Gal(b1-4)GlcNAc
Outline: as §1

[23] = biological target: Fuc(a1-2)[GalNAc(a1-3)]Gal(b1-4)GlcNAc(b1-3)GalNAc
Outline: as §1

[24] = biological target: Fuc(a1-2)[GalNAc(a1-3)]Gal(b1-4)GlcNAc(b1-3)[Fuc(a1-2)[GalNAc(a1-3)]Gal(b1-4)GlcNAc(b1-6)]GalNAc
Outline: as §1

[25] = biological target: Fuc(a1-2)[GalNAc(a1-3)]Gal(b1-4)GlcNAc(b1-6)GalNAc
Outline: as §1

[26] = biological target: Fuc(a1-2)[GalNAc(a1-3)]Gal(b1-4)[Fuc(a1-3)]GlcNAc
Outline: as §1

[27] = biological target: Fuc(a1-2)[GalNAc(a1-3)]Gal(b1-4)[Fuc(a1-3)]GlcNAc(b1-3)GalNAc
Outline: as §1

[28] = biological target: Fuc(a1-2)[GalNAc(a1-4)]Gal(b1-4)GlcNAc
Outline: as §1

[29] = biological target: Fuc(a1-2)[GalNAc(b1-3)]Gal
Outline: as §1

Fuc(a1-3)GlcNAc = biological target: Fuc(a1-3)GlcNAc
Outline: as §1

[30] = biological target: Fuc(a1-3)[Gal(b1-4)]Glc6S
Outline: as §1

[31] = biological target: Fuc(a1-3)[Gal(b1-4)]GlcNAc
Outline: as §1

[32] = biological target: Fuc(a1-3)[Gal(b1-4)]GlcNAc(b1-2)Man
Outline: as §1

[33] = biological target: Fuc(a1-3)[Gal(b1-4)]GlcNAc(b1-2)Man(a1-3)[Fuc(a1-3)[Gal(b1-4)]GlcNAc(b1-2)Man(a1-6)]Man(b1-4)GlcNAc(b1-4)GlcNAc
Outline: as §1

[34] = biological target: Fuc(a1-3)[Gal(b1-4)]GlcNAc(b1-2)Man(a1-3)[Fuc(a1-3)[Gal(b1-4)]GlcNAc(b1-2)Man(a1-6)]Man(b1-4)GlcNAc(b1-4)[Fuc(a1-6)]GlcNAc
Outline: as §1

[35] = biological target: Fuc(a1-3)[Gal(b1-4)]GlcNAc(b1-3)Gal(b1-3)[Fuc(a1-4)]GlcNAc
Outline: as §1

[36] = biological target: Fuc(a1-3)[Gal(b1-4)]GlcNAc(b1-3)Gal(b1-4)[Fuc(a1-3)]GlcNAc
Outline: as §1

[37] = biological target: Fuc(a1-3)[Gal(b1-4)]GlcNAc(b1-3)Gal(b1-4)[Fuc(a1-3)]GlcNAc(b1-3)Gal(b1-4)[Fuc(a1-3)]GlcNAc
Outline: as §1

[38] = biological target: Fuc(a1-3)[Gal(b1-4)]GlcNAc(b1-3)GalNAc
Outline: as §1

[39] = biological target: Fuc(a1-3)[Gal(b1-4)]GlcNAc(b1-6)GalNAc
Outline: as §1

[40] = biological target: Fuc(a1-3)[Gal(b1-4)]GlcNAc(b1-6)[Gal(b1-3)GlcNAc(b1-3)]Gal(b1-4)Glc
Outline: as §1

[41] = biological target: Fuc(a1-3)[Gal(b1-4)]GlcNAc6S
Outline: as §1

[42] = biological target: Fuc(a1-3)[Gal3S(b1-4)]Glc
Outline: as §1

[43] = biological target: Fuc(a1-3)[Gal3S(b1-4)]GlcNAc
Outline: as §1

[44] = biological target: Fuc(a1-3)[Gal3S(b1-4)]GlcNAc6S
Outline: as §1

[45] = biological target: Fuc(a1-3)[GalNAc(b1-4)]GlcNAc
Outline: as §1

[46] = biological target: Fuc(a1-3)[GalNAc(b1-4)]GlcNAc6S
Outline: as §1

Fuc(a1-4)GlcNAc = biological target: Fuc(a1-4)GlcNAc
Outline: as §1

Fuc(b1-3)GlcNAc = biological target: Fuc(b1-3)GlcNAc
Outline: as §1

Gal(a1-2)Gal = biological target: Gal(a1-2)Gal
Outline: as §1

Gal(a1-3)Gal = biological target: Gal(a1-3)Gal
Outline: as §1

Gal(a1-3)Gal(b1-3)GlcNAc = biological target: Gal(a1-3)Gal(b1-3)GlcNAc
Outline: as §1

[47] = biological target: Gal(a1-3)Gal(b1-3)GlcNAc(b1-2)Man
Outline: as §1

[48] = biological target: Gal(a1-3)Gal(b1-3)GlcNAc(b1-2)Man(a1-3)[Gal(a1-3)Gal(b1-3)GlcNAc(b1-2)Man(a1-6)]Man(b1-4)GlcNAc(b1-4)GlcNAc
Outline: as §1

[49] = biological target: Gal(a1-3)Gal(b1-3)GlcNAc(b1-3)GalNAc
Outline: as §1

[50] = biological target: Gal(a1-3)Gal(b1-3)GlcNAc(b1-6)GalNAc
Outline: as §1

[51] = biological target: Gal(a1-3)Gal(b1-3)[Fuc(a1-4)]GlcNAc(b1-2)Man(a1-3)[Gal(a1-3)Gal(b1-3)[Fuc(a1-4)]GlcNAc(b1-2)Man(a1-6)]Man(b1-4)GlcNAc(b1-4)GlcNAc
Outline: as §1

Gal(a1-3)Gal(b1-4)Glc = biological target: Gal(a1-3)Gal(b1-4)Glc
Outline: as §1

Gal(a1-3)Gal(b1-4)GlcNAc = biological target: Gal(a1-3)Gal(b1-4)GlcNAc
Outline: as §1

[52] = biological target: Gal(a1-3)Gal(b1-4)GlcNAc(b1-2)Man
Outline: as §1

B1: FliD (Clostridium difficile) (protein)
chain: MSSISPVRVTGLSGNFDMEGIIEASMIRDKEKVNKAKQDQQIVKWKQEIYRDIIKESKNLYDKYLNGDSPNSITNKKAYSATRITSSDESIIVAKGSAGAEKINYQFAVSQMAEPAKVTIKLNSSDPIVQQFPPNASGASSLNIGGVNIPISEQDTTSTIVSKINSLCADNDIRASYSEMTGELIISRKQTGSSSDIDLKVIGNDSLAGQIASDNGITFTTDASGTKSAVVYGKNLEADVTDDQGRVTHISKEQNSFKIDNIDYNVNSKGSAKLVSVTDTEEATKNMKAFVDDYNALMDKVYGLVTTKKSKDYPPLTDEQKDDMTTEEIEKWEKKAKEGILRNDDELRAFVEDIQSMFFGDADTIIALRKLGISEHENYNKKGQISFNADTFSKALIDDSDKVYKALAGYSSNYDDKGMFEKLKKIVFEYSGSSASKLTKKAGMENSSSASQNVYSKQIAEQERNISRLVEKMNDKEKRLYAKYSALESLLNKYSSQMNYFSQAQGN
glycan array binding signal (z-score) [1]: -0.23 | glycan array binding signal (z-score) [2]: -0.1 | glycan array binding signal (z-score) [3]: -0.207 | glycan array binding signal (z-score) [4]: -0.18 | glycan array binding signal (z-score) [5]: 0.013 | glycan array binding signal (z-score) [6]: -0.214 | glycan array binding signal (z-score) [7]: 0.139 | glycan array binding signal (z-score) [8]: -0.135 | glycan array binding signal (z-score) [9]: -0.245 | glycan array binding signal (z-score) [10]: -0.257 | glycan array binding signal (z-score) [11]: -0.118 | glycan array binding signal (z-score) [12]: -0.203 | glycan array binding signal (z-score) [13]: -0.178 | glycan array binding signal (z-score) [14]: -0.104 | glycan array binding signal (z-score) [15]: -0.222 | glycan array binding signal (z-score) [16]: -0.242 | glycan array binding signal (z-score) [17]: -0.235 | glycan array binding signal (z-score) [18]: -0.196 | glycan array binding signal (z-score) [19]: -0.017 | glycan array binding signal (z-score) [20]: 0.104 | glycan array binding signal (z-score) [21]: -0.244 | glycan array binding signal (z-score) [22]: 0.128 | glycan array binding signal (z-score) [23]: -0.185 | glycan array binding signal (z-score) [24]: -0.234 | glycan array binding signal (z-score) [25]: -0.248 | glycan array binding signal (z-score) [26]: 0.061 | glycan array binding signal (z-score) [27]: -0.115 | glycan array binding signal (z-score) [28]: -0.178 | glycan array binding signal (z-score) [29]: -0.226 | glycan array binding signal (z-score) (Fuc(a1-3)GlcNAc): -0.146 | glycan array binding signal (z-score) [30]: -0.046 | glycan array binding signal (z-score) [31]: -0.054 | glycan array binding signal (z-score) [32]: -0.147 | glycan array binding signal (z-score) [33]: -0.161 | glycan array binding signal (z-score) [34]: -0.161 | glycan array binding signal (z-score) [35]: -0.182 | glycan array binding signal (z-score) [36]: 0.072 | glycan array binding signal (z-score) [37]: -0.23 | glycan array binding signal (z-score) [38]: -0.187 | glycan array binding signal (z-score) [39]: 0.029 | glycan array binding signal (z-score) [40]: -0.179 | glycan array binding signal (z-score) [41]: 0.05 | glycan array binding signal (z-score) [42]: -0.047 | glycan array binding signal (z-score) [43]: 0.003 | glycan array binding signal (z-score) [44]: -0.134 | glycan array binding signal (z-score) [45]: -0.171 | glycan array binding signal (z-score) [46]: -0.16 | glycan array binding signal (z-score) (Fuc(a1-4)GlcNAc): -0.177 | glycan array binding signal (z-score) (Fuc(b1-3)GlcNAc): -0.183 | glycan array binding signal (z-score) (Gal(a1-2)Gal): 0.025 | glycan array binding signal (z-score) (Gal(a1-3)Gal): 0.022 | glycan array binding signal (z-score) (Gal(a1-3)Gal(b1-3)GlcNAc): 12.1 | glycan array binding signal (z-score) [47]: -0.125 | glycan array binding signal (z-score) [48]: -0.116 | glycan array binding signal (z-score) [49]: 0.003 | glycan array binding signal (z-score) [50]: -0.173 | glycan array binding signal (z-score) [51]: -0.197 | glycan array binding signal (z-score) (Gal(a1-3)Gal(b1-4)Glc): -0.038 | glycan array binding signal (z-score) (Gal(a1-3)Gal(b1-4)GlcNAc): -0.151 | glycan array binding signal (z-score) [52]: -0.211
